{"source": "the supplement of paper PMC3334620", "note": "Whole data set: some 33,000 sequences, median “E-score (-0.5 to 0.5)” near -0.012, cut for the highest 2% near 0.27. The list shows a part of the results."}
{"target": "T1, Vhr1 (UniProt P40522)", "T1 sequence": "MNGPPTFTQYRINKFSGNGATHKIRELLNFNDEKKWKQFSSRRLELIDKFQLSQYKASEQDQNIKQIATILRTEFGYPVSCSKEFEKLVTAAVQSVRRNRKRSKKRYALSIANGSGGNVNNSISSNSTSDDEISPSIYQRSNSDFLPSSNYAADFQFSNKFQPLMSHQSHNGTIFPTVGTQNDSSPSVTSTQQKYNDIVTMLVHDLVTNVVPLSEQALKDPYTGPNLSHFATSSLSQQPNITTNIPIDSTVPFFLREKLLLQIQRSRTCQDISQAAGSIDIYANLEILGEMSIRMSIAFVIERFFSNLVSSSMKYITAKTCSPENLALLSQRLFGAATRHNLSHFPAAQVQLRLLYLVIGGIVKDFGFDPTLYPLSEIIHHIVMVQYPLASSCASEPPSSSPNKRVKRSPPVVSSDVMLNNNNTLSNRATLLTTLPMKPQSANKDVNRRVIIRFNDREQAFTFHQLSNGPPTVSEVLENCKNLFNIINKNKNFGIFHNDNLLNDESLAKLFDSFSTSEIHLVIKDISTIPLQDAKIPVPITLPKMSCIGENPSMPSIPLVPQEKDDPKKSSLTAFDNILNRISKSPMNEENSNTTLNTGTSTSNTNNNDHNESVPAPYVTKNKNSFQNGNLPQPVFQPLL", "experiment": "PBM E-score (8-mer binding enrichment) (E-score (-0.5 to 0.5)); higher = stronger / more preferred TF binding; most listed sequences are background and not binding sites", "conditions": "protein concentration: 200 nM; construct: GST-full length", "procedure": "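Universal 'all 10-mer' protein binding microarrays (Agilent AMADID 015681) probed with GST-tagged S. cerevisiae TFs (full-length or DBD) made by in vitro transcription/translation (PURExpress), about 100-200 nM. Bound TF was detected with fluorescent anti-GST. Each ungapped 8-mer (which stands for itself and its reverse complement) is scored by the PBM enrichment score (E-score), a modified Wilcoxon-Mann-Whitney statistic from -0.5 to +0.5, computed with the Universal PBM Analysis Suite. Scale: above 0.35 generally sequence-specific binding.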"}
{"sequence": "GACAATAC", "PBM E-score": 0.0584}
{"sequence": "CCTCGACA", "PBM E-score": -0.029}
{"sequence": "CTGTCAGA", "PBM E-score": 0.00518}
{"sequence": "CTACAGTA", "PBM E-score": 0.16}
{"sequence": "GGAAATAC", "PBM E-score": -0.217}
{"sequence": "AGCGTTAC", "PBM E-score": 0.0402}
{"sequence": "ATGGAGAA", "PBM E-score": -0.00736}
{"sequence": "AGTCCGAC", "PBM E-score": 0.193}
{"sequence": "AGAACGGA", "PBM E-score": -0.209}
{"sequence": "AAGGGTCG", "PBM E-score": -0.166}
{"sequence": "GTAGTGAC", "PBM E-score": 0.217}
{"sequence": "CGCATCCA", "PBM E-score": 0.049}
{"sequence": "AGGCATTA", "PBM E-score": -0.214}
{"sequence": "CATCGACG", "PBM E-score": 0.0693}
{"sequence": "GGCTGTAA", "PBM E-score": -0.109}
{"sequence": "CGGGGTCC", "PBM E-score": -0.227}
{"sequence": "AGATCTCA", "PBM E-score": -0.042}
{"sequence": "GCTCGATA", "PBM E-score": 0.0314}
{"sequence": "GAGAACGA", "PBM E-score": -0.0856}
{"sequence": "AAACAACA", "PBM E-score": -0.0202}
{"sequence": "CGATTATC", "PBM E-score": 0.0945}
{"sequence": "ACGCCACC", "PBM E-score": 0.0236}
{"sequence": "ATAATTTG", "PBM E-score": -0.0159}
{"sequence": "TCTGAAGA", "PBM E-score": -0.212}
{"sequence": "TCTCTGCA", "PBM E-score": -0.115}
{"sequence": "CCACATCG", "PBM E-score": 0.127}
{"sequence": "CGGGGATA", "PBM E-score": 0.0148}
{"sequence": "AAGTTGTA", "PBM E-score": 0.0509}
{"sequence": "AGACATCA", "PBM E-score": 0.169}
{"sequence": "CAGGGTTA", "PBM E-score": -0.0475}
{"sequence": "ACTGTCAC", "PBM E-score": -0.00022}
{"sequence": "AGGTGTTA", "PBM E-score": -0.164}
{"sequence": "CGACGTCC", "PBM E-score": -0.0634}
{"sequence": "ACAATAAA", "PBM E-score": -0.0918}
{"sequence": "CCCGTTAA", "PBM E-score": -0.111}
{"sequence": "GCTCGAGA", "PBM E-score": -0.207}
{"sequence": "ACGACGCT", "PBM E-score": -0.0624}
{"sequence": "ATAGCTAC", "PBM E-score": 0.0717}
{"sequence": "AACATTGG", "PBM E-score": -0.149}
{"sequence": "GCCGTTGA", "PBM E-score": 0.0609}
{"sequence": "GCTTATGA", "PBM E-score": -0.101}
{"sequence": "GTTGTACA", "PBM E-score": -0.0526}
{"sequence": "GGCCATGA", "PBM E-score": 0.136}
{"sequence": "TCTTTTAA", "PBM E-score": -0.286}
{"sequence": "CTCTCCAA", "PBM E-score": 0.064}
{"sequence": "ATGGCACA", "PBM E-score": -0.0192}
{"sequence": "CCGTTGAG", "PBM E-score": -0.162}
{"sequence": "AGTTGGGC", "PBM E-score": 0.159}
{"sequence": "GGTTTTTA", "PBM E-score": -0.0977}
{"sequence": "GACCGAAA", "PBM E-score": -0.034}
{"sequence": "CCGCGGGA", "PBM E-score": 0.213}
{"sequence": "ACCGTAAG", "PBM E-score": -0.08}
{"sequence": "AAGTCTCG", "PBM E-score": -0.257}
{"sequence": "CAAAAGTA", "PBM E-score": -0.202}
{"sequence": "ACTAACTA", "PBM E-score": 0.112}
{"sequence": "CCGGAGGA", "PBM E-score": -0.0305}
{"sequence": "ATGGGCTA", "PBM E-score": 0.0163}
{"sequence": "ACACGGCC", "PBM E-score": 0.0168}
{"sequence": "CCAACCAA", "PBM E-score": -0.0857}
{"sequence": "CGCTGAGC", "PBM E-score": 0.00537}
{"sequence": "CCTACGAC", "PBM E-score": 0.0977}
{"sequence": "TCGTAAAA", "PBM E-score": -0.175}
{"sequence": "CTATGGCA", "PBM E-score": -0.132}
{"sequence": "TCATGCCA", "PBM E-score": 0.0541}
{"sequence": "CAGCCCTC", "PBM E-score": -0.133}
{"sequence": "AGGCGGTG", "PBM E-score": 0.0779}
{"sequence": "ACTAGCCG", "PBM E-score": -0.0659}
{"sequence": "CCTCTGCA", "PBM E-score": -0.109}
{"sequence": "GGAGGAAC", "PBM E-score": -0.154}
{"sequence": "CGGTCAAA", "PBM E-score": -0.0217}
{"sequence": "ATAAGGCG", "PBM E-score": -0.0195}
{"sequence": "AGCTCAAA", "PBM E-score": -0.0815}
{"sequence": "CGACGTGA", "PBM E-score": 0.0649}
{"sequence": "ATCTCAAG", "PBM E-score": -0.0114}
{"sequence": "AGGCTTGA", "PBM E-score": -0.0908}
{"sequence": "CAAGACTC", "PBM E-score": 0.295}
{"sequence": "CCGGTCAA", "PBM E-score": -0.116}
{"sequence": "CGGCACCC", "PBM E-score": -0.117}
{"sequence": "CATCGCGA", "PBM E-score": 0.0654}
{"sequence": "CCAGTTCA", "PBM E-score": -0.00903}
{"sequence": "GAGGATAC", "PBM E-score": -0.162}
{"sequence": "CCTCAGTA", "PBM E-score": -0.106}
{"sequence": "AATCATTA", "PBM E-score": 0.222}
{"sequence": "CAGGTGGC", "PBM E-score": 0.072}
{"sequence": "ATAGTTGC", "PBM E-score": 0.127}
{"sequence": "ACTTGAAT", "PBM E-score": -0.0462}
